# “And” between values parts separate entries of the source, which are not always exact repeats. Equal values may be shown once. About 17,000 (4.7%) of roughly 360,000 compounds were called active. Inconclusive results, whose numbers are uncertain, are shown with a selection of clear calls. Cut-off read from the data, not from the text of the source: active = activity change below about -50%; inconclusive = mostly about -30% to -49%; inactive = weaker than that. A structure can be active in one record and inactive in another.
# Experiment: qHTS for Inhibitors of Inflammasome Signaling: IL-1-beta AlphaLISA Primary Screen
# Conditions: THP-1 LPS/ATP IL-1B secretion, 16 h; at 57.5 µM, stronger effect = lower value
# Method in brief: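 Secreted IL-1B measured by AlphaLISA bead assay after 16 h compound exposure of THP-1 cells; compounds (final up to 57.5 uM) added 1 h before LPS (250 ng/mL) and ATP (1.25 mM) stimulation; lower signal means less secretion.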
# % is set by controls: 0 for no effect and ±100 for the full control effect.
row,Structure (SMILES),activity change
1,COc1ccc(N(C(=O)c2cnccn2)C(C(=O)NC2CCCCC2)c2ccc(Cl)cc2)cc1 (centres undefined),inactive: 3.62%
2,O=C(c1ccco1)N1CCN(c2ccc([N+](=O)[O-])cn2)CC1,inactive: -12.4%
3,COc1ccc(C(C(=O)NC2CCCCC2)N(C(=O)c2snc(C(N)=O)c2N)c2ccc(OC)cc2OC)cc1 (centres undefined),inconclusive: -40.7%
4,CCOc1ccc(Nc2nc(-c3sc(N)nc3C)cs2)cc1,inconclusive: -39.7%
5,COc1ccc(Cn2nnnc2CN(Cc2cc3cccc(C)c3[nH]c2=O)C2CCCC2)cc1,inconclusive: -42.5%
6,O=C(Nc1cccc(C(F)(F)F)c1)c1csc(-c2ccncc2)n1,inconclusive: -35.3%
7,Nc1ccccc1Nc1cc(-c2ccccc2)nn1-c1cccc(Cl)c1,active: -52.1%
8,CCn1cc(CN2CCC(C(=O)Nc3cccc(-c4cccc(Cl)c4)c3)CC2)c(C)n1,active: -53.4%
9,CCN(CC)c1ccc(SS(=O)(=O)O)cc1,inconclusive: -41.3% and active: -71.4%
10,CC(NCC(O)COc1ccc(Br)cc1)c1ccccc1 (centres undefined),inconclusive: -47.9%
11,Cc1ccc2nc(SCC(=O)Nc3ccc(F)c([N+](=O)[O-])c3)[nH]c2c1,active: -64.5%
12,CC(C)(C)c1ccc(OCCC(=O)Nc2cccc(S(=O)(=O)N3CCCCC3)c2)cc1,inconclusive: -41.7%
13,O=C(CCc1c[nH]c2ccccc12)NCc1ccncc1,inactive: 0%
14,O=C(Nc1cccc(C(F)(F)F)c1)C(Sc1ncnc2ccccc12)c1ccccc1 (centres undefined),active: -108%
15,CC(=O)n1nc(-c2cccnc2)nc1NCc1cccs1,inconclusive: -30.9%
16,COc1ccc(CSC(=N)N)cc1[N+](=O)[O-],active: -59.6%
17,Cc1ccc(/C=N/N2CCN(Cc3ccccc3)CC2)s1,inconclusive: -49.8%
18,C=C1[C@@H](O)[C@H](CC(C)C)N(Cc2ccccc2Br)S1(=O)=O,inconclusive: -44.7%
19,O=c1cc(CN2CCN(c3ccc(Cl)c(Cl)c3)CC2)c2c(ccc3ccccc32)o1,inactive: 9.24%
20,COc1ccc(Br)cc1C(=O)Nc1ccc(C(=O)NCC(C)C)cc1,inconclusive: -33.7%
21,Clc1ccc(-c2[nH]ncc2N=Nc2ccccc2)cc1,inconclusive: -35.7%
22,O=C(N/N=C/c1c(O)n(-c2ccc(Cl)cn2)c(=O)c2ccccc12)C1CC1,inactive: 46.6%

row,Structure (SMILES),activity change
1,CCOc1ccc(S(=O)(=O)Nc2ccc(C(=O)NCC(c3ccco3)N3CCCCC3)cc2)cc1 (centres undefined),inconclusive: -33.2%
2,CCOc1ccc(OCC(O)CNC2CCN(Cc3ccccc3)CC2)cc1 (centres undefined),inconclusive: -47.3%
3,Cc1ccc(Nc2ccccc2)cc1,inactive: 2.63%
4,C[C@@H]1CN([C@@H](C)CO)C(=O)c2cc(Br)cnc2O[C@@H]1CN(C)Cc1ccc(Oc2ccccc2)cc1,active: -51.6%
5,NS(=O)(=O)c1ccc(NC(=S)Nc2ccc(Br)c(Cl)c2)cc1,active: -89%
6,COc1ccc(CCNC(=O)CCCn2ncn3c(cc4occc43)c2=O)c(OC)c1,inconclusive: -33.7%
7,CC1CCCC(C)N1CCOc1cc(N)ccc1C#N (centres undefined),inactive: -24.2%
8,O=C(CN1C(=O)NC2(CCCCCCC2)C1=O)NCc1ccccc1Cl,inactive: -0.2%
9,COc1ccc(N2CCN(C(=O)CCCn3c(=O)c4cccn4c4cccnc43)CC2)cc1,inconclusive: -30.7%
10,CN1CCN(CCCN2c3ccccc3Sc3ccc(Cl)cc32)CC1,active: -64%
11,CCOc1ccc(C(=O)NCC(=O)OCC(=O)N(C)CC(=O)Nc2ccccc2CC)cc1OCC,inactive: 20.8%
12,Cc1ccc(O)c(C(CC(=O)NC2CCCCC2)c2ccccc2)c1 (centres undefined),inconclusive: -42.8%
13,CC(C)(C)CC(=O)Nc1nc(C(N)Cc2ccc(C(F)(F)F)cc2)cs1 (centres undefined),active: -83.8%
14,CCCCCNCc1ccc(Br)cc1,inconclusive: -47.2%
15,Cc1cc(Cl)c(S(=O)(=O)N2CCCCCC2)cc1OCC(N)=O,inactive: -8.86%
16,O=C(O)c1ccccc1-c1ccccc1C(=O)NCCCO,inactive: 2.19%
17,COc1ccc2[nH]c3c(c2c1)CCN1C(=O)C(CC(=O)NCc2cccc(C(F)(F)F)c2)C[C@H](C(=O)N2CCOCC2)[C@@]31C (some centres undefined),inconclusive: -41.5%
18,COc1ccc(-c2csc(NC(=O)CCn3cnc4ccccc4c3=O)n2)cc1OC,inconclusive: -44.3%
19,COc1ccccc1CNC(=O)c1c(O)c2cc(OC)c(OC)cc2[nH]c1=O,inconclusive: -35.2%
20,Cc1cc(N2CCN(C)CC2)nc2ccc(NC(=O)c3ccccc3F)cc12,active: -56%
21,O=c1[nH]c(C2CCN(S(=O)(=O)Cc3ccccc3)CC2)nc2c1nnn2Cc1cccc(Cl)c1,inactive: -12.2%
22,CN1CCN(C(=O)C2=C[C@@H](C(C)(C)C)C[C@@H](OCc3ccc(CO)cc3)O2)CC1,inactive: -19%
